Experimental data reported in PubChem BioAssay AID686979 (National Center for Advancing Translational Sciences (NCATS), 2013).
The campaign covered roughly 420,000 compounds. About 50,000 (12%) were called active. The inconclusive results got no clear call from the source; some entries with a clear call stand among them for comparison. Calls come from the whole dose curve; as a rule, active = well fitted inhibition curve with a large enough effect; inconclusive = small, poorly fitted or top-dose-only effect; inactive = flat fitted curve, though single readings scatter. No potency is given beside an inconclusive call; the fits are too rough.

Test: qHTS for Inhibitors of human tyrosyl-DNA phosphodiesterase 1 (TDP1): qHTS in cells in presence of CPT; note: nearly all actives have a fitted effect of over 55% in size
Details: chicken DT40 Tdp1-/-;hTDP1 cells + 20 nM CPT, ATP luminescence, 48 h; activity change, negative = growth inhibition: at 46.2 µM (top of the series)
Outline: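 Chicken DT40 Tdp1-/- cells stably complemented with human TDP1 were seeded at 400 cells/well in medium containing 20 nM camptothecin, exposed to pin-transferred compounds, and grown at 37 °C for at least 48 hr. Viability was read as ATP luminescence.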
% is set by controls: 0 for no effect and ±100 for the full control effect; potency is the fitted concentration of half-maximal effect; tags give direction and shape of the fitted curve.

Compound	Potency	activity change, negative = growth inhibition
CC(C)CCc1noc(CN(CC2CCC2)CC2CCCO2)n1 (stereo not given)	inconclusive [inhibitor, single point]	–
Cc1cc(=O)n2nc(N3CCCC(C(=O)NCc4ccccc4Cl)C3)sc2n1 (stereo not given)	–	inactive: -11.2%
O=C(O)c1ccc(N2CCN(C(c3ccccc3)c3ccccc3)CC2)c([N+](=O)[O-])c1	–	inactive: -28%
CCCSC1=C(C#N)C(c2ccc(Cl)cc2Cl)CC(=O)N1 (stereo not given)	inconclusive [inhibitor, partial curve]	–
Cc1cccc(C(=O)Nc2nc(-c3nnn(-c4cc(C)ccc4C)c3C)ns2)c1	inconclusive [inhibitor, single point]	–
O=C(CNC(=O)c1ccccc1F)N/N=C/c1cc(Br)ccc1OC(=O)/C=C/c1ccco1	active: 3.66 µM	–
CCOC(=O)N1CCN(C(=O)C[C@@H]2C[C@@]3(C(=O)OCC)CCCC=C3N(CCc3ccc(OC)c(OC)c3)C2=O)CC1	inconclusive [inhibitor, single point]	–
COc1ccc(Nc2cc(C(=O)NCCCOC(C)C)c3ccccc3n2)c(OC)c1	active: 16.4 µM	–
Cc1ccc(-n2c(-c3ccc(Br)cc3)nc3c(cnn3-c3ccccc3)c2=O)cc1	inconclusive [inhibitor, single point]	–
COC(=O)C(NNc1ccccc1C)(NC(=O)c1ccc(F)cc1)C(F)(F)F (stereo not given)	inconclusive [inhibitor, partial curve, poor fit]	–
CSCc1cc(N2CCOCC2)nc(-c2ccccc2)n1	inconclusive [inhibitor, single point]	–
O=C(NC1CCCC1)N[C@@H]1C=C[C@@H](CC(=O)N2CCOCC2)O[C@@H]1CO	inconclusive [inhibitor, full curve]	–
O=C(Nc1cc(F)cc(F)c1)c1ccc(NCCc2ccccc2)c([N+](=O)[O-])c1	–	inactive: 6.08%
COc1ccc(C)cc1S(=O)(=O)Nc1cccc(Cl)c1	–	inconclusive: -34% [inhibitor]
COc1ccc(CCNc2cc(C)[nH]c(=O)c2)cc1OC	–	inactive: 0.224%
CCOc1cc(C#N)c(NC(=O)c2ccc(OC)c(S(=O)(=O)N3CCCCC3)c2)cc1OCC	inconclusive [inhibitor, single point]	–
O=C1c2cccc3cccc(c23)C(=O)N1CC1CCCO1 (stereo not given)	inconclusive [inhibitor, single point]	–
COc1ccc(NC(=O)Cn2c(=O)n(Cc3ccco3)c(=O)c3sc4ccccc4c32)cc1OC	–	inactive: -2.16%
O=C(Cn1c(=O)n(Cc2ccco2)c(=O)c2ccccc21)Nc1cccc(F)c1	inconclusive [inhibitor, single point]	–
CN(Cc1ccccc1)CC1CCCN(CCc2ccccc2F)C1 (stereo not given)	inconclusive [inhibitor, single point]	–
CCC(C)NCCOCCOc1ccc(F)cc1 (stereo not given)	–	inconclusive: -33% [inhibitor]
CCCCNC(=O)CSc1nc2ccc(N3CCOCC3)cc2c(=O)n1CCc1ccccc1	inconclusive [inhibitor, single point]	–
CN1CCN(C(=O)c2cc3cc(F)ccc3[nH]2)CC1	inconclusive [inhibitor, single point]	–
CCOc1c(OC)cccc1C(=O)NCC1(c2ccccc2)CCCC1	active: 5.8 µM	–

Compound	Potency	activity change, negative = growth inhibition
Nc1nnc(SCCCC(=O)c2ccc(F)cc2)s1	inconclusive [inhibitor, single point]	–
Cc1cc(C(=O)CSc2nnnn2C)c(C)n1-c1ccc2c(c1)OCCO2	inconclusive [inhibitor, single point]	–
O=c1oc2ccc(Cl)cc2cc1-c1ccccc1	–	inactive: 1.99%
COc1cc2c(cc1OC)C(c1ccc3c(c1)OCO3)CC(=O)N2 (stereo not given)	–	inactive: 4.57%
CCc1ccccc1NC(=O)Cn1c(=O)n(-c2ccccc2)c(=O)c2oc3ccccc3c21	inconclusive [inhibitor, partial curve]	–
CCOc1cc2c3c(c1)C(C)CC(C)(C)N3C(=O)C2=O (stereo not given)	inconclusive [inhibitor, single point]	–
CN(C(=O)c1ccc(S(=O)(=O)N2CCOCC2)cc1)C1CCS(=O)(=O)C1 (stereo not given)	–	inactive: -7.72%
CN(C)S(=O)(=O)c1cccc(C(=O)Nc2ccccc2[N+](=O)[O-])c1	inconclusive [inhibitor, single point]	–
O=C(Nc1ccc(O)c2c(=O)cc(-c3ccccc3Cl)oc12)c1ccc(Cl)cc1Cl	–	inconclusive: -33.6% [inhibitor]
COc1ccc(S(=O)(=O)Nc2ccccc2-c2nnn(CC(=O)Nc3ccccc3OC)n2)cc1	active: 6.51 µM	–
CCn1c(SCc2ccccc2)nc2c1c(=O)[nH]c(=O)n2C	inconclusive [inhibitor, single point]	–
Cc1ccccc1NC(=S)N1CCCN(Cc2ccc(F)cc2)C1	–	inactive: -2.33%
C/C(=C\c1cccc(Cl)c1)C(=O)c1c(C)cc(C)[nH]c1=O	inconclusive [inhibitor, single point]	–
COc1ccc(-n2nc(C(=O)NCC(=O)N3CCC(C)CC3)c3ccccc3c2=O)cc1	–	inactive: -4.27%
C=CCc1cc(Cl)ccc1OCCN1CC(C)OC(C)C1 (stereo not given)	inconclusive [inhibitor, single point]	–
O=C(CN1C(=O)NC2(CCCC2)C1=O)Nc1ccc(OC(F)(F)F)cc1	–	inactive: -11.5%
CCCCn1c(SCC(=O)NCc2ccco2)nc2c(sc3ccccc32)c1=O	inconclusive [inhibitor, full curve, poor fit]	–
Cc1ccccc1Nc1nc(N)nc(COC(=O)c2cccc(S(=O)(=O)N(C)c3ccccc3)c2)n1	inconclusive [inhibitor, partial curve]	–
N=c1n(CCN2CCOCC2)c2ccccc2n1Cc1ccccc1Br	inconclusive [inhibitor, partial curve]	–
CCN(C(=O)CSc1nc(-c2ccc(C(C)C)cc2)no1)c1ccccc1	active: 14.6 µM	–
O=C(Nc1nnc(S(=O)(=O)N2CCCc3ccccc32)s1)c1ccc(Cl)cc1	inconclusive [inhibitor, single point]	–
COc1ccc(OCc2cc(-c3ccc(Cl)cc3)no2)cc1	–	inactive: -15.1%
C=CCn1c(SCC(=O)Nc2cc(C)on2)nnc1-c1ccccc1F	–	inactive: -24.3%
Cc1cc(NC(=O)COC(=O)c2c(Cl)cccc2Cl)no1	–	inactive: -0.853%

Compound	Potency	activity change, negative = growth inhibition
O=C(C1CCCCC1)N(Cc1cccnc1)c1nc2ccc(Cl)cc2s1	inconclusive [inhibitor, single point]	–
c1ccc(-c2ccc(C3CCCN3)cc2)cc1 (stereo not given)	inconclusive [inhibitor, partial curve]	–
CC(C)C1CC(CCNCc2ccc3c(c2)OCO3)(c2ccccc2)CCO1 (stereo not given)	inconclusive [inhibitor, single point]	–
COc1cc(N=c2ssnc2Cl)c(OC)cc1Cl	active: 2.59 µM	–
CCCOc1ccc(-c2c(C(=O)N/N=C/c3cccnc3)nnn2-c2nonc2N)cc1	–	inactive: 10.1%
CCOC(=O)c1[nH]c(=S)n(Cc2ccccc2)c1C(=O)OCC	inconclusive [inhibitor, single point]	–
COc1ccc(CCN2C(=O)c3ccccc3NC2c2cc(Cl)c(O)c(OC)c2)cc1 (stereo not given)	active: 4.61 µM	–
Cc1ccccc1-c1nc(CS(=O)(=O)CC(=O)NCCCN2CCN(C)CC2)c(C)o1	inactive	–
CCC1CCCCN1CCCNC(=O)C1CCN(c2nnc(-n3cccc3)s2)CC1 (stereo not given)	–	inactive: 11.3%
Cc1cccc(/C=C2\Oc3cc(OS(C)(=O)=O)ccc3C2=O)c1	inconclusive [inhibitor, single point]	–
CC(=O)Nc1ccc(S(=O)(=O)Nc2ccc(Cc3ccncc3)cc2)cc1	inconclusive [inhibitor, partial curve]	–
CCn1c(SCC(=O)NCCc2ccccc2)nc2sc3c(c2c1=O)CCN(C)C3	inconclusive [inhibitor, single point]	–
C[C@@H](NC(=O)c1[nH]cnc1C(=O)Nc1nccs1)c1ccccc1	inconclusive [inhibitor, single point]	–
CCc1nc2c(cnn2-c2ccc(Cl)cc2)c(=O)n1-c1ccc2c(c1)OCCO2	inconclusive [inhibitor, single point]	–
CCOC(=O)c1ccccc1OC(=O)CS(=O)c1ccccc1[N+](=O)[O-] (stereo not given)	inconclusive [inhibitor, single point]	–
C[C@H](NC(=O)c1nc[nH]c1C(=O)NCCCCCNC(=O)OC(C)(C)C)c1ccccc1	active: 14.6 µM	–
Cc1cccc(C)c1-n1nnnc1C(C1CC1)N1CCN(C/C=C/c2ccccc2)CC1 (stereo not given)	inconclusive [inhibitor, single point]	–
COc1ccc(N2C(=O)CS/C2=C\[N+](=O)[O-])cc1	inconclusive [inhibitor, full curve]	–
Cc1cccc(NC(=O)C(=O)NCCc2c[nH]c3ccccc23)c1C	inconclusive [inhibitor, partial curve]	–
CN1CCN(c2ccc(CNC(=O)C3Cc4c(-c5ccccc5)ccnc4O3)cc2)CC1 (stereo not given)	inconclusive [inhibitor, single point]	–
CCSc1nnc(NC(=O)c2cc(C)oc2C)s1	–	inconclusive: -34.1% [inhibitor]
CC1(C)Cc2c(cnn2-c2cccc(F)c2)C(NC(=O)c2cc[n+]([O-])cc2)C1 (stereo not given)	–	inactive: 15%
